Laboratory results from publication PMC10735225.
These are yes or no findings as the source states them, for the method shown. Binding seen in cells or lysates may run through a third protein. Some results given as binding are weak or reduced against the parent protein; the word gives no strength. Sequences can lack the tags named with a protein.

By UniProt entry, the sequences of proteins in these tests, tags left out.
UniProt Q9DAK2: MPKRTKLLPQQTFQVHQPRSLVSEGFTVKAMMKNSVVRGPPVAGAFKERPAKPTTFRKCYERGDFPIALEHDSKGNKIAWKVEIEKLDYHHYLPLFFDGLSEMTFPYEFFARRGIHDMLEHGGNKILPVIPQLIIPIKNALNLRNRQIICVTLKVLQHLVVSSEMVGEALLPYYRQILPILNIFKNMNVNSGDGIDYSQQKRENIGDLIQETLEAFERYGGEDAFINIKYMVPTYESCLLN

Assays:
Experiment in all cases: co-IP; lysates of transfected HEK293T cells (Pierce IP Lysis Buffer); 2 ug anti-Myc or anti-FLAG antibody, Protein A/G agarose; western blot
[1] = molecular target: T1, Myc-tagged CFAP20 (mouse) (UniProt Q8BTU1)
T1 sequence: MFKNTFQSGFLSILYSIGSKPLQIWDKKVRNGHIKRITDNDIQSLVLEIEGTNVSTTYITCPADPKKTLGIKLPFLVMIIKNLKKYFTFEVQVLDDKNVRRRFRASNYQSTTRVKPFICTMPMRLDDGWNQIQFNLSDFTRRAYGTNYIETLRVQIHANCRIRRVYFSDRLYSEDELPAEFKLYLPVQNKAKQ

[2] = molecular target: T2, Myc-tagged DNALI1 (mouse) (UniProt Q8BVN8)
T2 sequence: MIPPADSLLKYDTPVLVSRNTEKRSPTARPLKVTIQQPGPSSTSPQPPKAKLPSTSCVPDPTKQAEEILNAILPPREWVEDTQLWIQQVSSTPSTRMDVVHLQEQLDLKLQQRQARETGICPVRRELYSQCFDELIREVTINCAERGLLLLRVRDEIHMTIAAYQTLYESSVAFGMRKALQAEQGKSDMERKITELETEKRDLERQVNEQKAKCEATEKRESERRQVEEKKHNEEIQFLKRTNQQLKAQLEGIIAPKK

Myc-tagged DRC2 (mouse) = molecular target: T3, Myc-tagged DRC2 (mouse) (UniProt Q8VHI7)
T3 sequence: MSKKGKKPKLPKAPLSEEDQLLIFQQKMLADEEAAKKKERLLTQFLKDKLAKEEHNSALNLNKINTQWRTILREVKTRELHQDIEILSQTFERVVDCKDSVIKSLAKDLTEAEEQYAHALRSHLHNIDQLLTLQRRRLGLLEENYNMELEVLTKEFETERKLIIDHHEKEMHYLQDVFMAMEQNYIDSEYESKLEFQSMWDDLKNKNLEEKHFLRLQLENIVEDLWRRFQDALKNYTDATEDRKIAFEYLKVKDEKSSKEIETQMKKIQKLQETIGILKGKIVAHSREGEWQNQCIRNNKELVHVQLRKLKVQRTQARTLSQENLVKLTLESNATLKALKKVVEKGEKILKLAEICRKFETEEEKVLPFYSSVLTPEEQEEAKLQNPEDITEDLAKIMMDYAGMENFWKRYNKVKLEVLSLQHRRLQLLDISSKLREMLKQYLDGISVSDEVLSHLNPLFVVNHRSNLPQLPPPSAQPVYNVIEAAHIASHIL

Myc-tagged ODAD3 (mouse) = molecular target: T4, Myc-tagged ODAD3 (mouse) (UniProt Q8BSN3)
T4 sequence: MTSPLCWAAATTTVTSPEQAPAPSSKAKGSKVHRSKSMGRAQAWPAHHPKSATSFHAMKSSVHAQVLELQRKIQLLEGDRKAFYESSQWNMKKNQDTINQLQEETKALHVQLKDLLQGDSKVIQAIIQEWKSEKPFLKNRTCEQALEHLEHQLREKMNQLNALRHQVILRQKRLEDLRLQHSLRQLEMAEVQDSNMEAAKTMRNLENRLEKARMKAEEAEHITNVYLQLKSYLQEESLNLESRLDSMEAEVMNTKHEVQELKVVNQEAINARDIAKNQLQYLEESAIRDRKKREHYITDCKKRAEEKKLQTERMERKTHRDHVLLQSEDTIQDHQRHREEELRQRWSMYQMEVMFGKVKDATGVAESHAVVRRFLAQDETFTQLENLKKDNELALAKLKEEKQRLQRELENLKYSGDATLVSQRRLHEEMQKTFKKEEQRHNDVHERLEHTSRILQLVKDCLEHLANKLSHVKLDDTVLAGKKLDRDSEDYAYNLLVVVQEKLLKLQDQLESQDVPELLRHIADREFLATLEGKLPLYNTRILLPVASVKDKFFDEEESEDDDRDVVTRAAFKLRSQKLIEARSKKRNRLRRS

Myc-tagged PACRG (mouse) = Myc-tagged PACRG (mouse) (UniProt Q9DAK2)
Myc-tagged SPAG6 (mouse) = molecular target: T5, Myc-tagged SPAG6 (mouse) (UniProt Q9JLI7)
T5 sequence: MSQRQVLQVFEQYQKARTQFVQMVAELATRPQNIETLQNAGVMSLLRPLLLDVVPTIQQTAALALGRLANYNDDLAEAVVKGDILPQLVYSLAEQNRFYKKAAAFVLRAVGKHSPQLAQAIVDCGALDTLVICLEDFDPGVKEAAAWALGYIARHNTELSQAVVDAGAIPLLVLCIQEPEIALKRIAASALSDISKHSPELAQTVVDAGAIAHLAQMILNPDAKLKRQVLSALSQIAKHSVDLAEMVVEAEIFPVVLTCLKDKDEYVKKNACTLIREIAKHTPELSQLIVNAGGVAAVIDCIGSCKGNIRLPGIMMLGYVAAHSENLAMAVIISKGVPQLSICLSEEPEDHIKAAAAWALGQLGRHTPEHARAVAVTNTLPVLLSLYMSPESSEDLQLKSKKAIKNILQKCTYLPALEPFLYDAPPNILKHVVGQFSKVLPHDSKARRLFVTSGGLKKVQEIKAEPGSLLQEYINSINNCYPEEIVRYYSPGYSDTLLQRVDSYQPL

- binding [1]: binds
- binding [2]: no binding
- binding (Myc-tagged DRC2 (mouse)): no binding
- binding (Myc-tagged ODAD3 (mouse)): binds
- binding (Myc-tagged PACRG (mouse)): binds
- binding (Myc-tagged SPAG6 (mouse)): no binding
B1: FLAG-tagged CFAP52 (cilia and flagella associated protein 52) (protein, UniProt Q5F201-1 1-620)
chain: MEEQVLPELDVAELELQAVIGFNGHVPNGLKCHPDQEHLIYPLGCTVLIQAINTNEQNFLHGHGNNVSCVTISKEGDYIASGQVTFMGFKADIILWDFKKRELIARLSLHKGKIEALAFSPNDLYLVSLGGPDDGSVVVWSIAKRDAICGSPAAGLNVGNATSVVFSRCRDEMFVTAGNGTIRVWELDLPNRKIWPTECQTGQMKRIVLSTGMADDDSFFYLGTTTGDILKMNPKTKLLADTGPVKDKFSLGVSALRCLKMGGLLVGSGAGLLIFCKSPSYKPIKKVQLQGGITSITLRGEGHQFFVGTEESHIYRVNFTDFKETLIATCHFEAVQDIVFPFGTAELFATCAKKDIRVWHTMSKRELLRITVPNMTCHGIDFMRDGKSIISAWDDGKIRAFAPESGRLMYTINSAHRIGVTAIATTSDCKRIISGGGEGEVRVWQVGCQTQKLEEALKEHKSSVSCIRVKKNNEECVTASTDGTCIIWDLVRLRRNQMILANTLFQCVCYHPEEFQIITSGTDRKIAYWEVFDGSVIRELEGSLSGSINGMDITQEGGHFVTGGHDHLVKVWDYNEGEVTHVGVGHSGNIMAMRISPGNQYIVSVSADGAILRWKYPFAS
